Data as given in the supplement of paper PMC8728848.
The list shows a part of the results.

Experiments:
Assay in all cases: glycan array binding signal (z-score within array); higher = stronger binding
Settings in all cases: glycan notation: IUPAC condensed, linker removed
[1] = biological target: Neu5Ac(a2-6)Gal(b1-4)GlcNAc(b1-3)Gal(b1-4)GlcNAc(b1-3)GalNAc
Outline: (§1)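 Arrays were curated from the Consortium for Functional Glycomics database, 3228 in total, and kept only where the protein sequence was available. Binding is expressed as a within-array Z-score. This score was averaged across arrays of the same protein sequence at different concentrations or buffers and across linkers, and negative values can be read as non-binding.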

[2] = biological target: Neu5Ac(a2-6)Gal(b1-4)GlcNAc(b1-3)Gal(b1-4)GlcNAc(b1-3)[Neu5Ac(a2-6)Gal(b1-4)GlcNAc(b1-3)Gal(b1-4)GlcNAc(b1-6)]GalNAc
Outline: as §1

[3] = biological target: Neu5Ac(a2-6)Gal(b1-4)GlcNAc(b1-3)Gal(b1-4)GlcNAc(b1-6)[Gal(b1-3)]GalNAc
Outline: as §1

[4] = biological target: Neu5Ac(a2-6)Gal(b1-4)GlcNAc(b1-3)Gal(b1-4)[Fuc(a1-3)]GlcNAc(b1-3)Gal(b1-4)[Fuc(a1-3)]GlcNAc
Outline: as §1

[5] = biological target: Neu5Ac(a2-6)Gal(b1-4)GlcNAc(b1-3)GalNAc
Outline: as §1

[6] = biological target: Neu5Ac(a2-6)Gal(b1-4)GlcNAc(b1-3)[Neu5Ac(a2-6)Gal(b1-4)GlcNAc(b1-6)]GalNAc
Outline: as §1

[7] = biological target: Neu5Ac(a2-6)Gal(b1-4)GlcNAc(b1-6)GalNAc
Outline: as §1

[8] = biological target: Neu5Ac(a2-6)Gal(b1-4)GlcNAc(b1-6)[Gal(b1-3)GlcNAc(b1-3)]Gal(b1-4)Glc
Outline: as §1

[9] = biological target: Neu5Ac(a2-6)Gal(b1-4)GlcNAc(b1-6)[Gal(b1-3)]GalNAc
Outline: as §1

[10] = biological target: Neu5Ac(a2-6)Gal(b1-4)GlcNAc6S
Outline: as §1

Neu5Ac(a2-6)GalNAc = biological target: Neu5Ac(a2-6)GalNAc
Outline: as §1

[11] = biological target: Neu5Ac(a2-6)GalNAc(b1-4)GlcNAc
Outline: as §1

[12] = biological target: Neu5Ac(a2-6)GalNAc(b1-4)GlcNAc6S
Outline: as §1

[13] = biological target: Neu5Ac(a2-6)GlcNAc(b1-4)GlcNAc
Outline: as §1

[14] = biological target: Neu5Ac(a2-6)GlcNAc(b1-4)GlcNAc(b1-4)GlcNAc
Outline: as §1

Neu5Ac(a2-8)Neu5Ac = biological target: Neu5Ac(a2-8)Neu5Ac
Outline: as §1

[15] = biological target: Neu5Ac(a2-8)Neu5Ac(a2-3)Gal(b1-3)GalNAc(b1-4)[Neu5Ac(a2-3)]Gal(b1-4)Glc
Outline: as §1

[16] = biological target: Neu5Ac(a2-8)Neu5Ac(a2-3)Gal(b1-3)GalNAc(b1-4)[Neu5Ac(a2-8)Neu5Ac(a2-3)]Gal(b1-4)Glc
Outline: as §1

[17] = biological target: Neu5Ac(a2-8)Neu5Ac(a2-3)Gal(b1-4)Glc
Outline: as §1

[18] = biological target: Neu5Ac(a2-8)Neu5Ac(a2-3)Gal(b1-4)GlcNAc
Outline: as §1

[19] = biological target: Neu5Ac(a2-8)Neu5Ac(a2-3)[Gal(b1-3)GalNAc(b1-4)]Gal(b1-4)Glc
Outline: as §1

[20] = biological target: Neu5Ac(a2-8)Neu5Ac(a2-3)[GalNAc(b1-4)]Gal(b1-4)Glc
Outline: as §1

[21] = biological target: Neu5Ac(a2-8)Neu5Ac(a2-8)Neu5Ac
Outline: as §1

[22] = biological target: Neu5Ac(a2-8)Neu5Ac(a2-8)Neu5Ac(a2-3)Gal(b1-4)Glc
Outline: as §1

[23] = biological target: Neu5Ac(a2-8)Neu5Ac(a2-8)Neu5Ac(a2-3)[Gal(b1-3)GalNAc(b1-4)]Gal(b1-4)Glc
Outline: as §1

[24] = biological target: Neu5Ac(a2-8)Neu5Ac(a2-8)Neu5Ac(a2-3)[GalNAc(b1-4)]Gal(b1-4)Glc
Outline: as §1

[25] = biological target: Neu5Ac(a2-8)Neu5Ac(a2-8)Neu5Ac(a2-8)Neu5Ac(a2-3)[GalNAc(b1-4)]Gal(b1-4)Glc
Outline: as §1

[26] = biological target: Neu5Ac(a2-8)Neu5Gc(a2-3)Gal(b1-4)GlcNAc
Outline: as §1

[27] = biological target: Neu5Ac(b2-6)Gal(b1-4)GlcNAc
Outline: as §1

Neu5Ac(b2-6)GalNAc = biological target: Neu5Ac(b2-6)GalNAc
Outline: as §1

[28] = biological target: Neu5Ac9Ac(a2-3)Gal(b1-3)GlcNAc
Outline: as §1

[29] = biological target: Neu5Ac9Ac(a2-3)Gal(b1-4)GlcNAc
Outline: as §1

[30] = biological target: Neu5Ac9Ac(a2-6)Gal(b1-4)GlcNAc
Outline: as §1

[31] = biological target: Neu5Gc(a2-3)Gal(b1-3)GlcNAc
Outline: as §1

[32] = biological target: Neu5Gc(a2-3)Gal(b1-3)[Fuc(a1-4)]GlcNAc
Outline: as §1

Neu5Gc(a2-3)Gal(b1-4)Glc = biological target: Neu5Gc(a2-3)Gal(b1-4)Glc
Outline: as §1

[33] = biological target: Neu5Gc(a2-3)Gal(b1-4)GlcNAc
Outline: as §1

[34] = biological target: Neu5Gc(a2-3)Gal(b1-4)GlcNAc(b1-3)Gal(b1-4)GlcNAc(b1-2)Man(a1-3)[Neu5Gc(a2-3)Gal(b1-4)GlcNAc(b1-3)Gal(b1-4)GlcNAc(b1-2)Man(a1-6)]Man(b1-4)GlcNAc(b1-4)GlcNAc
Outline: as §1

[35] = biological target: Neu5Gc(a2-3)Gal(b1-4)[Fuc(a1-3)]GlcNAc
Outline: as §1

[36] = biological target: Neu5Gc(a2-6)Gal(b1-4)GlcNAc
Outline: as §1

Neu5Gc(a2-6)GalNAc = biological target: Neu5Gc(a2-6)GalNAc
Outline: as §1

[37] = biological target: Neu5Gc(a2-8)Neu5Ac(a2-3)Gal(b1-4)GlcNAc
Outline: as §1

[38] = biological target: Neu5Gc(a2-8)Neu5Gc(a2-3)Gal(b1-4)GlcNAc
Outline: as §1

[39] = biological target: Neu5Gc(a2-8)Neu5Gc(a2-3)Gal(b1-4)GlcNAc(b1-3)Gal(b1-4)GlcNAc
Outline: as §1

[40] = biological target: Neu5Gc(a2-8)Neu5Gc(a2-6)Gal(b1-4)GlcNAc
Outline: as §1

[41] = biological target: Neu5Gc(b2-6)Gal(b1-4)GlcNAc
Outline: as §1

B1: PX9937B-bvu-524-33-524 (Bacteroides vulgatus) (protein)
chain: GTAYWKNPDQFTAFNTGLHALLREKSYNFFLLGEPRADIYGDNPIGGEASQGMERLPFNTINKENVGISNYGDMYKIINQINQMIAKTTETTILTEATQNYYLGEAYGMRAYLYFHLLRSWGDVVLYLDYTEGQNLDLSNITKGVSPATEVMEQIKKDIQASENAFGSDYSFKLGRHFWSAAATQMLKGEAYLWSGRQMNGGNSDYTIAKNAFENVKKADVGLVTSSFKDIFSFENKKNKEMIFTIHNGKDEYEMWGGYYRMRLIPAQDKMVKIYCDENGNSFVGTPDAQLNGLTQLQVRREFYFKGFRNNDTRWTTSLKAVYKKDAQGVVSYFGPITYKFQGTMLEGGSTRSFLDDFPIYRYADCLLQLAMAKVLLGEDPTEEINAVRERAYGSKYFNEHKAEIAYPNDNDPEFYTDNKWMKPDNAGALEAILKERLREFMFEGKRWYDIRLLGWDYVHQYSSAEQSRLLWPIDAGTLTNNSALKQTPGYE
- glycan array binding signal (z-score) [1]: -0.066
- glycan array binding signal (z-score) [2]: -0.402
- glycan array binding signal (z-score) [3]: 0.172
- glycan array binding signal (z-score) [4]: -0.192
- glycan array binding signal (z-score) [5]: 0.234
- glycan array binding signal (z-score) [6]: -0.386
- glycan array binding signal (z-score) [7]: -0.375
- glycan array binding signal (z-score) [8]: 0.226
- glycan array binding signal (z-score) [9]: -0.223
- glycan array binding signal (z-score) [10]: -0.386
- glycan array binding signal (z-score) (Neu5Ac(a2-6)GalNAc): -0.366
- glycan array binding signal (z-score) [11]: -0.319
- glycan array binding signal (z-score) [12]: -0.369
- glycan array binding signal (z-score) [13]: -0.273
- glycan array binding signal (z-score) [14]: -0.108
- glycan array binding signal (z-score) (Neu5Ac(a2-8)Neu5Ac): -0.053
- glycan array binding signal (z-score) [15]: -0.039
- glycan array binding signal (z-score) [16]: -0.231
- glycan array binding signal (z-score) [17]: -0.268
- glycan array binding signal (z-score) [18]: -0.154
- glycan array binding signal (z-score) [19]: -0.453
- glycan array binding signal (z-score) [20]: -0.327
- glycan array binding signal (z-score) [21]: -0.038
- glycan array binding signal (z-score) [22]: -0.414
- glycan array binding signal (z-score) [23]: -0.321
- glycan array binding signal (z-score) [24]: -0.379
- glycan array binding signal (z-score) [25]: -0.281
- glycan array binding signal (z-score) [26]: 5.74
- glycan array binding signal (z-score) [27]: -0.405
- glycan array binding signal (z-score) (Neu5Ac(b2-6)GalNAc): -0.36
- glycan array binding signal (z-score) [28]: -0.172
- glycan array binding signal (z-score) [29]: -0.145
- glycan array binding signal (z-score) [30]: 0.213
- glycan array binding signal (z-score) [31]: 0.806
- glycan array binding signal (z-score) [32]: -0.316
- glycan array binding signal (z-score) (Neu5Gc(a2-3)Gal(b1-4)Glc): 0.188
- glycan array binding signal (z-score) [33]: -0.328
- glycan array binding signal (z-score) [34]: 0.18
- glycan array binding signal (z-score) [35]: -0.39
- glycan array binding signal (z-score) [36]: 0.039
- glycan array binding signal (z-score) (Neu5Gc(a2-6)GalNAc): 0.029
- glycan array binding signal (z-score) [37]: -0.104
- glycan array binding signal (z-score) [38]: -0.304
- glycan array binding signal (z-score) [39]: -0.194
- glycan array binding signal (z-score) [40]: -0.344
- glycan array binding signal (z-score) [41]: -0.009
